In the antibiotic and cytotoxicity screens of Wong et al. (2023):
The other results are listed elsewhere or left out.

Assays:
HSkMC = human skeletal muscle cells; test: cytotoxicity call (relative viability < 0.9); details: 10 µM
HepG2 = test: cytotoxicity call (relative viability < 0.9); details: 10 µM
S. aureus RN4220 = test: growth inhibition call (relative growth <= 0.2); details: 50 µM

SMILES | cytotoxicity call (HSkMC) | cytotoxicity call (HepG2) | growth inhibition call (S. aureus RN4220)
C[C@@H]1CCCCO[C@H](CN(C)C(=O)C2CCCCC2)[C@H](C)CN([C@@H](C)CO)C(=O)c2cc(NC(=O)CCCCCC(=O)Nc3ccccc3N)ccc2O1 | inactive | inactive | inactive
CC(C)N1C[C@@H](CN(C)Cc2ccc(Oc3ccccc3)cc2)Oc2c(NC(=O)c3ccncc3)cccc2C1=O | inactive | active | inactive
C[C@@H]1CCCCO[C@@H](CN(C)CC2CC2)[C@@H](C)CN([C@H](C)CO)C(=O)c2cc(NC(=O)CCCCCC(=O)Nc3ccccc3N)ccc2O1 | inactive | inactive | inactive
C[C@H]1CN([C@@H](C)CO)S(=O)(=O)c2ccc(Br)cc2O[C@H]1CN(C)C(=O)Cc1ccncc1 | inactive | inactive | inactive
CO[C@H]1CN(C)C(=O)c2cc(NC(=O)c3ccccc3)ccc2OC[C@H](C)N(C(=O)CN(C)C)C[C@@H]1C | inactive | inactive | inactive
C[C@@H]1CCCCO[C@H](CN(C)S(=O)(=O)c2cccs2)[C@H](C)CN([C@H](C)CO)C(=O)c2cc(NC(=O)C3CCCCC3)ccc2O1 | inactive | inactive | inactive
Nc1ncnc2c1ncn2[C@H]1C[C@H](O)[C@@H](CO)O1 | inactive | inactive | inactive
COc1ccc(NC(=O)Nc2ccc3c(c2)CC(=O)N([C@@H](C)CO)C[C@H](C)[C@H](CN(C)Cc2ccc(C(=O)Nc4ccccc4N)cc2)O3)cc1 | inactive | inactive | inactive
C[C@H](CO)N1C[C@H](C)[C@@H](CN(C)C(=O)Nc2ccc(C(F)(F)F)cc2)OCCCC[C@H](C)Oc2ccc(NC(=O)CCC(F)(F)F)cc2C1=O | inactive | active | inactive
CN(C)CCNC(=O)c1ccccn1 | inactive | inactive | inactive
Nc1cccc2c1CN(C1CCC(=O)NC1=O)C2=O (stereo not given) | inactive | inactive | inactive
C[C@@H]1CN([C@H](C)CO)C(=O)c2ccccc2-c2ccccc2CO[C@@H]1CN(C)C(=O)N[C@H](C)c1ccccc1 | inactive | inactive | inactive
C[C@H](CO)N1C[C@H](C)[C@@H](CN(C)S(=O)(=O)c2cccs2)Oc2c(NC(=O)C3CC3)cccc2C1=O | inactive | inactive | inactive
CC(=O)c1ccc(OCc2c(-c3ccccc3)nnn2CC(=O)NS(=O)(=O)Cc2ccccc2)cc1 | inactive | inactive | inactive
CS(=O)(=O)N1[C@@H]2Cn3c(ccc(-c4ccc(F)cc4)c3=O)[C@H]1[C@@H](C(=O)N1CCOCC1)[C@@H]2CO | inactive | inactive | inactive
C[C@@H]1CN([C@@H](C)CO)C(=O)CCCn2cc(nn2)CO[C@H]1CN(C)S(=O)(=O)c1ccc(Cl)cc1 | inactive | inactive | inactive
CC(C)NC(=O)Nc1ccc2c(c1)CC(=O)N([C@H](C)CO)C[C@@H](C)[C@@H](CN(C)Cc1ccc3c(c1)OCO3)O2 | inactive | inactive | inactive
C[C@H](CO)N1C[C@H](C)[C@H](CN(C)C(=O)Nc2ccc(C(F)(F)F)cc2)Oc2ccc(NC(=O)Nc3cccc4ccccc34)cc2CC1=O | inactive | inactive | inactive
NC[C@H](c1ccco1)N1CCc2ccccc2C1 | inactive | inactive | inactive
CS(=O)(=O)N1CCCN(C(=O)CN2C(=O)COc3ccccc32)CC1 | inactive | inactive | inactive
COC(=O)CSc1cc(C)nc(N)n1 | inactive | inactive | inactive
C[C@H](CO)N1C[C@H](C)[C@@H](CN(C)C(=O)C2CCOCC2)Oc2ncc(/C=C/c3ccccc3)cc2C1=O | inactive | inactive | inactive
COCCNC(=O)C[C@@H]1C[C@H]2c3cc(NC(=O)COC)ccc3O[C@H]2[C@H](CO)O1 | inactive | inactive | inactive
O=C(C[C@@H]1CC[C@H]2[C@@H](COC[C@H](O)CN2S(=O)(=O)c2ccccc2F)O1)NCc1ccccc1F | inactive | inactive | inactive
Cc1ccc(S(=O)(=O)Nc2ccc3c(c2)C(=O)N([C@H](C)CO)C[C@H](C)[C@@H](CN(C)Cc2ccc(-c4ccccc4)cc2)O3)cc1 | inactive | inactive | inactive
NC(=O)CC[C@H]1CCCNC1 | inactive | inactive | inactive
C[C@H]1CN([C@@H](C)CO)C(=O)Cc2cc(NC(=O)Nc3ccc(F)cc3)ccc2O[C@@H]1CN(C)C(=O)Nc1cccc2ccccc12 | inactive | inactive | inactive
O=C1NCCN1c1cccnc1 | inactive | inactive | inactive
O=C(C1=C[C@H](c2ccc3c(c2)OCO3)C[C@H](OCCCCO)O1)N1CCN(Cc2ccc3c(c2)OCO3)CC1 | inactive | inactive | inactive
C[C@@H]1CN([C@@H](C)CO)C(=O)c2c(c3ccccc3n2C)-c2ccccc2CO[C@H]1CN(C)C(=O)N[C@H](C)c1ccccc1 | inactive | inactive | inactive
